# Results taken from ChEMBL document CHEMBL4888484, “Replenishing the malaria drug discovery pipeline: Screening and hit evaluation of the MMV Hit Generation Library 1 (HGL1) against asexual blood stage Plasmodium falciparum ,using a nano luciferase reporter read-out” (2022).
# Out of some 150,000 compounds screened, about 540 (0.36%) showed an effect of 50% or more. The list shows a part of the results.
# Test system: Plasmodium falciparum
# Assay: Primary screen in NF54 nanoGlo assay, in single point, at 2uM, 72h; a lower Z score goes with more inhibition
# Format: functional, Erythrocyte
# Conditions: timepoint 72 hour
SMILES,% Inhibition [%],Z score
O=C(C1CCCCC1)N1CC(N(Cc2ccccn2)C(=O)Nc2ccccc2)C1,-1,0.13
C=CCN1C[C@H]2CN(Cc3cc(OC)c(OCC)cc3Cl)C[C@@]2(C(=O)O)C1,-11,1.46
C=CCn1nc(C(=O)N2CCN(C)CC2)c2c1CC[C@H](N1CCC(C)CC1)C2,-13,1.49
C[C@H](NC(=O)C1CCCC1)C(=O)NC1(C)CCCC1,-11,1.58
O=C(NCc1nc(Cc2cccs2)no1)N1CCS(=O)(=O)CC1,-10,1.84
Cc1cccc(NC(=O)NC2CCN([C@@H](C)c3ccncc3)CC2)n1,-9,0.95
CC(C)(C)C(=O)CNC(=O)C1(Oc2ccc3ncccc3c2)CCNCC1,-14,1.36
CN(C)c1ccccc1NC(=O)NC1CCCCC1,1,-0.22
COc1cnc(-c2cccc(C(F)(F)F)c2)nc1Oc1ccccc1,-5,0.6
CC(C)C[C@@H]1NC(=O)[C@@H](Cc2ccccc2)NC(=O)Cc2ccc(F)c(c2)Oc2ccc(cc2)C[C@@H](C(=O)N(C)Cc2cccnc2)NC1=O,-18,2.32
CN(Cc1cccnc1)c1cc([C@H]2C[C@@H](N)C2)nc(N2CCCC2)n1,19,-2.83
COc1ccc(C(=O)N[C@@H]2CCC[C@@H]2C(=O)N2CCN(C(=O)c3ccco3)CC2)cn1,-5,0.71
O=C(CN1C(=O)COc2ccc(C(=O)N3CCCC3)cc21)N1CCN(c2ncccn2)CC1,-4,0.47
Cc1cc(F)ccc1S(=O)(=O)N1CC2CCC1(CN)CC2,2,-0.21
Cn1ccnc1C(O)C1CCCN(CC(=O)NCC(F)(F)F)C1 (centres undefined),0,0.05
N#Cc1cccnc1N(CC(=O)N1CCCC1)C[C@H]1CCCO1,-5,0.7
Cn1nnnc1-c1ccc(NC(=O)N2CC[C@H]2C2CCCC2)cc1,-1,0.16
COc1cccc(-c2nc(C(N)=O)c3c(n2)n(-c2ccc(C)c(C)c2)c(=O)n3Cc2ccccc2)c1,-6,0.72
CC(C)c1nccc(CN(C)Cc2ccc(CN(C)C)cc2)n1,2,-0.46
CC(=O)N(c1ccc2oc(=O)sc2c1)S(=O)(=O)c1cccs1,-35,4.73
CC(C)=CCN1CC2(CCN(c3nc(C(N)=O)cs3)CC2)CC1=O,-1,0.13
Cc1ccc(NC(=O)N2CCCCCCC2)c(Cl)c1,-6,0.75
Cc1c(C2=NO[C@H]3C(=O)N(c4ccc(Cl)cc4)C(=O)[C@@H]23)cnn1C,-7,1
O=C(c1ccncc1F)N1CCN(c2cnsn2)CC1,-22,2.79
COCc1noc(CNS(=O)(=O)c2cccc(C(=O)N3CCCC3)c2)n1,-9,1.68
CC(=O)N(CCN1CCOCC1)CC(=O)Nc1nc(-c2ccccc2)cn1-c1ccc(C(C)C)cc1,-2,0.28

SMILES,% Inhibition [%],Z score
Cc1ccc(S(=O)(=O)N2CCC([C@H](NC(=O)c3cccs3)C(=O)N3CCCCC3)CC2)cc1,-7,1.28
COC(=O)c1ccc(NC(=O)NCC2(O)CCCCC2)cc1Cl,-3,0.38
CCOC[C@@H](O)Cn1nnnc1-c1ccccn1,-9,1.29
COCCN1C[C@@H](CNC(=O)Nc2cccc3nsnc23)CC1=O,-4,0.67
CCn1ncnc1[C@H](C)NC(=O)c1ccnc(C(C)C)n1,-12,1.87
COCCN(C/C=C/c1ccc(OC)cc1)CC1CCN(Cc2ccccc2OC)CC1,-7,1.06
O=C(N[C@@H]1CCC[C@H]1OCc1ccccc1)c1cnn[nH]1,-5,0.88
CCN1Cc2ccccc2C[C@H]1c1nc(-c2ccco2)nn1CCO,-6,1.06
O=C(NCCc1ccc2c(c1)OCO2)C1CC2CCC1C2 (centres undefined),-4,0.49
CC(C)n1cc2cc(C(=O)NCCc3ccc(Cl)cc3)sc2c1,1,-0.23
N#Cc1ccccc1C(=O)N1C[C@H]2CCC[C@@H](C2)C1,-9,1.57
Clc1ccc(-c2cc3c(N4CCCCCC4)nccn3n2)cc1,-4,0.53
C#C[C@@H](NC(=O)c1cnc2n1CCOC2)C1CCOCC1,-11,1.63
COC[C@@H]1[C@H](C(=O)NC2CCCC2)CCC(=O)N1C,-4,0.47
O=C(Nc1ccc(N2C(=O)CCCC2=O)cc1)c1cc(-c2cccc(Cl)c2)no1,-13,1.36
Cc1nc([C@H]2CCC(=O)N(C3CCCC3)C2)n(CC(F)(F)F)n1,-3,0.56
CC(C)(C)OC(=O)N[C@@H](CC(=O)OCCc1ccc(F)cc1)C1CC1,-6,1.04
COc1ccc(NC(=O)Cn2ccn3nc4c(c3c2=O)CCCCC4)cc1Cl,-6,0.76
COc1ccc(N2CCN(C(=O)c3cc(C)nc4c(C)cc(C)cc34)CC2)cc1,2,-0.33
O=C1CC[C@H](COc2ncccc2Br)N1,-11,1.43
CC[C@H](C)NC(=O)CCNCC=Cc1ccco1,5,-0.62
C[C@@H](CN(C)c1nccc(C2CCCC2)n1)N1CCOCC1,-6,1.14
C[C@@H]1OCCO[C@@H]1C(=O)N(CC1CCCCC1)c1ccccn1,1,-0.26
NC(=O)[C@H](CNC(=O)NCC(F)(F)F)Cc1ccccc1Cl,3,-0.43
CCn1nc(C)c(-c2cc(C(=O)NCCN(C(C)=O)C3CCOCC3)no2)c1C,2,-0.29
Cc1ccc(N2C(=O)CN(C(C)c3ccccc3)[C@H]3CS(=O)(=O)C[C@H]32)cc1 (some centres undefined),-7,1.09
